Reference: PubChem BioAssay AID493014 (National Center for Advancing Translational Sciences (NCATS), 2011)
About 170 (0.05%) of roughly 340,000 compounds were called active. Roughly 26% stayed inconclusive and do not appear here. The call rests on the fitted dose curve; in most records, active means well fitted inhibition curve with a large enough effect in the signal ratio, with a control signal flat (not every such curve was filed as active); inconclusive means small, poorly fitted or top-dose-only effect, or effect the other way, or a change in a side signal; inactive means flat fitted curve, though single readings scatter; the % refers to the signal ratio. Only a part is listed here, and it is no random draw.

Assay: qHTS Assay to Find Inhibitors of Chronic Active B-Cell Receptor Signaling;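 on activity change, negative = inhibition: plate controls were basal doxycycline-induced cells for no effect and cells given 10 µM MG132 for full effect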
Conditions: ABC-DLBCL IkBa-CBG/CBR reporter, luminescence ratio (green luciferase fused to IkBa over red control in TMD8 lymphoma cells), 4 h; series mostly up to 46.1 µM; activity change, negative = inhibition: at the top concentration
Summary of the method: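 Concentration-response series (up to 46 uM) were applied to TMD8 dual-reporter cells for 4 h at 37C with doxycycline. Green/red ratio, after filter-overlap correction, defined %Activity; red signal alone was normalised to basal cells and zero luminescence.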
Potency means the concentration at half of the fitted maximal effect.

Row | Structure (SMILES) | activity change, negative = inhibition | Potency
1 | Cc1cn([C@H]2C=C[C@@H](CO)O2)c(=O)[nH]c1=O | inactive: 2.11% | –
2 | Cc1c(C(=O)Nc2ccc(F)c(F)c2)oc2ccc(S(=O)(=O)N3CCCCC3)cc12 | inactive: 9.05% | –
3 | CC(=O)CC(c1ccccc1)c1c(O)c2ccccc2oc1=O (stereo not given) | inactive: -0.146% | –
4 | O=c1cc(-c2cccc(F)c2)[nH]c2ccccc12 | – | active: 20.6 µM
5 | CC(/C=C1\SC(=S)N(C(C(=O)O)C(C)C)C1=O)=C\c1ccccc1 (stereo not given) | inactive: 0.472% | –
6 | COC(C[C@H](O)C[C@@H](O)[C@@H](C)OCc1ccccc1)OC | inactive: -0.571% | –
7 | COc1cc(NC(=O)N2CCNC2=O)cc(C(=O)Nc2cccc(C(F)(F)F)c2)c1 | – | active: 17.8 µM
8 | COc1ccc(-c2noc(CSc3nc(N)c(-c4ccccc4)c(=O)[nH]3)n2)cc1 | – | active: 16.4 µM
9 | NC(=O)c1ccnc2c(O)cccc12 | inactive: 17.7% | –
10 | CC(C)(C)OC(=O)C[C@@H]1C/C=C\C[C@@H](CC(=O)N(CCO)Cc2ccccc2)C(=O)N2CCC[C@H]2COC1=O | inactive: 0.208% | –
11 | Cc1ccc(C(=O)/C=C/C(=O)c2ccc(C)cc2)cc1 | inactive: 2.07% | –
12 | C=CCN=C1N[C@@H](c2cccc(C(F)(F)F)c2)C(C(=O)OC)=C(C)N1CC | inactive: -5.67% | –
13 | COc1ccc2c(c1OC)C(=O)O[C@@H]2[C@H]1c2c(cc3c(c2OC)OCO3)CCN1C | inactive: 3.37% | –
14 | O=C(NN1C(=O)C2C3C=CC([C@@H]2C1=O)C31CC1)c1ccccc1 (stereo not given in full) | inactive: 0.471% | –
15 | COc1ccc(NC(=O)N(C)C[C@H]2Oc3ccc(NS(=O)(=O)c4cccs4)cc3C(=O)N([C@H](C)CO)C[C@@H]2C)cc1 | inactive: -0.296% | –
16 | COc1ccc(/C=N/NC(=O)c2ccc(CSc3nc(C)cc(C)n3)cc2)cc1O | – | active: 16.4 µM
17 | CCN1C(=O)[C@@H]2[C@@H](c3ccc(-c4ccc(F)cc4)cc3)N3CCCC[C@@]3(C(=O)OC)[C@@H]2C1=O | inactive: 0.778% | –
18 | O=C(C1=C[C@H](C2CCCCC2)C[C@H](OCCCCO)O1)N1CCN(Cc2ccccc2)CC1 | inactive: 8.01% | –
19 | CC(=O)C[C@@H](O)CC(=O)[C@@H]1OC(=O)CCCCCc2ccccc21 | inactive: -2.19% | –
20 | C=CCN1C(=O)C2(c3ccccc31)C1CCCC=C1C(C#N)=C(N)C2(C#N)C#N (stereo not given) | inactive: -0.748% | –
